In PMC4336329 (PLoS ONE, 2015):
Hit rate of the full screen: of about 310,000 compounds, about 14,000 (4.5%) showed an effect of 50% or more. The effect is printed as a negative number. This is one part of the list.

Each compound was assayed against human ether-à-go-go-related gene (hERG) potassium channel (human, UniProt Q12809) (assay: primary screen, population patch clamp on CHO cells stably expressing hERG).
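Also: peak tail current of the secondary pulse compared with the same well before compound.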

Chain of human ether-à-go-go-related gene (hERG) potassium channel (Q12809 whole entry, looked up): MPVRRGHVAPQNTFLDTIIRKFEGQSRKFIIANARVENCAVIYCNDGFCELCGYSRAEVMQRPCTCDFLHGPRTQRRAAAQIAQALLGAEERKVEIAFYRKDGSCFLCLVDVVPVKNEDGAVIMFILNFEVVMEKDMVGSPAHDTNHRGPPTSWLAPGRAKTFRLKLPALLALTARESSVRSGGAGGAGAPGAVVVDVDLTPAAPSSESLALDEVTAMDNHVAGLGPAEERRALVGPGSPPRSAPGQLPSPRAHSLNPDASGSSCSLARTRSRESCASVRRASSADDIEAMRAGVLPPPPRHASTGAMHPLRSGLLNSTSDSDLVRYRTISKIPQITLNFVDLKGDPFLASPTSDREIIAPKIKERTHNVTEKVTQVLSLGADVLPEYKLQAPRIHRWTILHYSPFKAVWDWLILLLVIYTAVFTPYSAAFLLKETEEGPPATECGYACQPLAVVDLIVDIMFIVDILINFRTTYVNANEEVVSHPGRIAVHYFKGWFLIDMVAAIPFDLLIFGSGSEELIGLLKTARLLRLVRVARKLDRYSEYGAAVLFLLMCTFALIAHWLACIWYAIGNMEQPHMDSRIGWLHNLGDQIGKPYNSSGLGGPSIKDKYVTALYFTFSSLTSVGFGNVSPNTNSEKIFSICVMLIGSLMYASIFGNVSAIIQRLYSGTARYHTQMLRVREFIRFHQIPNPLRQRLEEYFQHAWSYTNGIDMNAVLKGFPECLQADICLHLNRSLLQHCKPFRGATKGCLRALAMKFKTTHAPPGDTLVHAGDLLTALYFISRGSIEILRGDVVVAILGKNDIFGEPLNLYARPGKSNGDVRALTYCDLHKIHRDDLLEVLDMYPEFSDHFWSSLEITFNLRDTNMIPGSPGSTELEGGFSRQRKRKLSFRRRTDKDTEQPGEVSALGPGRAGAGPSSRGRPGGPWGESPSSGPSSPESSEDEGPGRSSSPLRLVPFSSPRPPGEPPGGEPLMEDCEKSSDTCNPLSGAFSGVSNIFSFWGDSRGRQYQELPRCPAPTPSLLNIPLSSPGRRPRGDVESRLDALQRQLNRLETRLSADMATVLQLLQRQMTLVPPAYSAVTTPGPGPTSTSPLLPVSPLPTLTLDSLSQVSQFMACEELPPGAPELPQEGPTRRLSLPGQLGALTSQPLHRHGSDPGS

Compound	hERG current change (%, negative = inhibition) at 10uM
O=C(Cc1ccc([N+](=O)[O-])cc1)c1ccc(O)cc1O	-40.4%
COc1ccc(NC(=O)CCc2ccc(OC)c(OC)c2)cn1	12.4%
COc1ccc(CCNCCC(=O)Nc2c(C)cc(C)cc2C)cc1OC.Cl	-13.8%
COc1ccc(C(CCN2CCCCC2)c2c(O)cc(OC)cc2OC)cc1 (centres unmarked)	-75.2%
Cc1cc2c(c(=O)n1Cc1ccccn1)C(c1ccc3c(c1)OCO3)C(C#N)=C(N)O2 (centres unmarked)	-0.622%
COc1ccc(NC(=O)C2C3C=CC(C3)C2C(=O)NCc2ccco2)cc1 (centres unmarked)	-15.7%
CC1=C(C(N)=O)S(=O)(=O)c2ccccc21	15.5%
COc1ccc(S(=O)(=O)c2ccc(OC)c(OC)c2)cc1OC	-12.2%
CC1CN(c2nnc(-c3ccccc3)c3ccccc23)CC(C)O1 (centres unmarked)	-10.8%
CCOc1ccc(NS(=O)(=O)c2ccc(N)cc2)cc1	10.1%
CCCSc1nc2c(c(=O)[nH]c(=O)n2C)n1CC(O)COc1ccccc1 (centres unmarked)	-20.5%
COc1ccc(-n2cnnc2SCC(=O)N(C)c2ccccc2)cc1	-15.3%
Cc1onc(-c2c(F)cccc2Cl)c1C(=O)OCC(=O)c1c[nH]c2ccccc12	8.02%
COCC(=O)N1CCc2ccc(NC(=O)c3ccc(C(F)(F)F)cc3)cc2C1	-38.3%
O=c1[nH]c2ccc(S(=O)(=O)N3CCCCC3)cc2[nH]1	14.2%
COc1cc(-n2c(C)nc3cc(C(=O)N4CCOCC4)ccc32)cc(OC)c1OC	0.933%
CCOc1ccc(N2C(=O)CC(SC(=NC)Nc3cccc(F)c3)C2=O)cc1 (centres unmarked)	-2.81%
COc1ccc(S(=O)(=O)NCc2cccnc2)c2ccccc12	5.55%
CCNC(=O)c1ccccc1NC(=O)C1CC(=O)N(C(C)C)C1 (centres unmarked)	9.78%
NCCSc1c(-c2ccc(Cl)cc2)[nH]c2ccccc12	-84.3%

Compound	hERG current change (%, negative = inhibition) at 10uM
COC(=O)c1c(NC(=O)CC2SC(N)=NC2=O)sc2c1CCC(C)C2 (centres unmarked)	4.92%
Cc1csc(NC(=O)Nc2cccc(Cl)c2)n1	0.132%
O=C(Nc1nnc(-c2ccco2)o1)C1CCCCC1	3.61%
Cc1ccc(N(CC(=O)NCc2cccs2)S(=O)(=O)c2cccs2)cc1	1.23%
Nc1nnc(COc2ccccc2)s1	-2.39%
COCCNC(=S)NNC(=O)c1ccc(-n2cnnn2)cc1	8.42%
COC(=O)C1=C(C)N(Cc2ccccc2)C(=O)N[C@H]1c1ccco1	5.95%
COC(=O)CNC(=O)Cn1ccc2ccccc2c1=O	10.8%
Cc1cccc(C)c1Nc1nnc(SCC(=O)c2ccc3c(c2)NC(=O)CO3)s1	3.55%
Oc1ccc(/C=N/N=C/c2ccc(O)cc2)cc1	23.5%
O=C(NCc1ccc(-c2csnn2)cc1)c1cccs1	-6.3%
COCCn1nnnc1C(c1cccc(OC)c1OC)N1CCN(C(=O)c2ccco2)CC1.Cl (centres unmarked)	10.2%
c1ccc(C2=NNC(=NCc3ccc4c(c3)OCO4)SC2)cc1	-29.9%
CSc1ccccc1NC(=O)C1=CC(c2cccs2)=NS(=O)(=O)N1C	-18.6%
C/C(CC(=O)Nc1ccc2c(c1)OCCO2)=N\NC(=O)COc1ccccc1C	2.39%
CC1CCN(C(=O)CSc2nnc(CNC(=O)c3c(F)cccc3F)o2)CC1	18.3%
S=c1[nH]nc(-c2ccncc2)n1/N=C/c1ccccc1	16.4%
O=S(=O)(NC1CCCCC1N1CCCCC1)c1ccc(Cl)cc1 (centres unmarked)	-5.16%
CSCCC1COC(c2cccs2)=N1 (centres unmarked)	7.81%
CCCNC(=O)c1ccc(OC)cc1OC	15.4%

Compound	hERG current change (%, negative = inhibition) at 10uM
COc1cc(/C=N/NS(=O)(=O)c2ccccc2)ccc1OS(=O)(=O)c1ccc(C)cc1	0.874%
Nc1cc(N)nc(SCC(=O)Nc2cccc(S(=O)(=O)N3CCCCC3)c2)n1	4.03%
CSCC[C@H](NC(=O)NC1CCCC1)C(=O)O	12.2%
CCOc1cc(C(=O)Nc2cccc3ncccc23)cc(OCC)c1OCC	-7.69%
CCOC(=O)c1nc2nc(-c3cccs3)cc(C(F)(F)F)n2n1	16.4%
CC(=O)Nc1ccc(S(=O)(=O)N(C)CC(=O)OC(C)C(=O)NC2CCCCC2)cc1 (centres unmarked)	4.23%
O=C(CC1C(=O)NCCN1Cc1ccc(F)cc1)NC1CCCCCCC1 (centres unmarked)	-8.27%
O=C(O)Cn1c2ccccc2c2ccccc21	30.5%
COc1cccc(-c2csc(N3CCN(CC(=O)NNC(=O)c4ccco4)CC3)n2)c1	5.44%
COc1cc2c(cc1OC)-c1cc(Nc3cccc(C)c3)nc(=O)n1CC2	-45.4%
COc1cccc(/C=N/NC(=O)CN2CC(c3ccccc3)CC2=O)c1O (centres unmarked)	-9.13%
CCCS(=O)(=O)Nc1c(C(=O)OC)[nH]c2ccccc12	-12.5%
Cc1[nH]c2ccccc2c1C(=O)C(=O)N(C)C1CCCCC1	-12.7%
O=C(c1ccccc1)c1cccn1CC(=O)N1CCCCCC1	5.2%
COC(=O)C(C)Sc1nc2c(c(=O)n(C)c(=O)n2C)n1CCC(C)C (centres unmarked)	-24.3%
O=C(COc1ncnc2scc(-c3ccc(Cl)cc3)c12)NCc1ccco1	-5.97%
C/C(=N\OC(=O)Nc1ccccc1)c1ccc(C)cc1	-15.9%
CCN1CCN(c2cc(C)c3cc(NC(=S)N4CCN(c5ccccc5)CC4)ccc3n2)CC1	-0.088%
Cc1ccc(NC(=O)Cn2nnc(C(=O)NCc3ccccc3)c2N)cc1C	17%
